About 14,000 (4.5%) of roughly 310,000 compounds showed an effect of 50% or more. The effect is printed as a negative number. The list shows a part of the results.
Target: human ether-à-go-go-related gene (hERG) potassium channel (human, UniProt Q12809)
Assay: primary screen, population patch clamp on CHO cells stably expressing hERG
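Also: peak tail current of the secondary pulse compared with the same well before compound.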

human ether-à-go-go-related gene (hERG) potassium channel, sequence (Q12809 whole entry, looked up): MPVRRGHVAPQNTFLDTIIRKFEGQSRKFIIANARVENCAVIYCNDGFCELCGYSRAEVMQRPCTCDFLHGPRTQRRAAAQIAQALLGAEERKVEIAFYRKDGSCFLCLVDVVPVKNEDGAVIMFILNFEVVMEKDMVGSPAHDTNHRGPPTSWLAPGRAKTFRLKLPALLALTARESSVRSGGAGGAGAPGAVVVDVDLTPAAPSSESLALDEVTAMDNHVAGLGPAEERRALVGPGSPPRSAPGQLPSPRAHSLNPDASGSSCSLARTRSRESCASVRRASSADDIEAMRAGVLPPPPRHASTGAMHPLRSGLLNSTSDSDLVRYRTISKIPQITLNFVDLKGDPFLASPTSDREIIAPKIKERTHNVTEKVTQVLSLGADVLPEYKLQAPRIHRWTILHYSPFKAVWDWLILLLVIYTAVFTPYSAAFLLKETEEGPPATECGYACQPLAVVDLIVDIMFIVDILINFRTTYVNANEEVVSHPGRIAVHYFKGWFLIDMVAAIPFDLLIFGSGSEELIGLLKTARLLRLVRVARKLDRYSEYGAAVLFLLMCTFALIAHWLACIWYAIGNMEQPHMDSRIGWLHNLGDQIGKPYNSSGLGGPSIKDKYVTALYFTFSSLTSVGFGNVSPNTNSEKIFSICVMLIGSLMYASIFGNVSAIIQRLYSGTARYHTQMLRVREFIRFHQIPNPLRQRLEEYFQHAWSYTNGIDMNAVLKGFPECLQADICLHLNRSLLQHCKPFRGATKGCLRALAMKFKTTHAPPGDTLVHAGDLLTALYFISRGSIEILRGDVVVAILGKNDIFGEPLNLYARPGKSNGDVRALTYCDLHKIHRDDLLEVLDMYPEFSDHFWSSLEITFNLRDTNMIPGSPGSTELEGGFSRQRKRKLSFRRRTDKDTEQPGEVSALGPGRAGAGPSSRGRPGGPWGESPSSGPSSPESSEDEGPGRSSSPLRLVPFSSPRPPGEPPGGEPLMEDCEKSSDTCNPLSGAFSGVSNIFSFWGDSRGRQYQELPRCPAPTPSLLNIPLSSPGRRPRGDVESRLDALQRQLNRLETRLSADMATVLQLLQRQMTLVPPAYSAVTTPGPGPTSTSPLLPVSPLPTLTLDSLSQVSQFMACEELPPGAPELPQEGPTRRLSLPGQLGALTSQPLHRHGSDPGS

Q: `Cc1ccc(OCC(=O)N/N=C/c2cn[nH]c2-c2ccc(Cl)c(Cl)c2)cc1` was tested. Which “hERG current change (%, negative = inhibition) at 10uM” value did it give?
A: 12.2%

Q: With `CC(C)COc1ccc(Br)cc1CNC(C)(C)C.Cl` as the compound, how does the “hERG current change (%, negative = inhibition) at 10uM” value read?
A: -41.8%

Q: How did the “hERG current change (%, negative = inhibition) at 10uM” value turn out when `CCN(CC)c1nc2c(c(=O)n(C)c(=O)n2C)n1CCCc1ccccc1` was run?
A: -3.09%

Q: With `FC(F)(F)c1ccccc1-c1nc(-c2ccncc2)no1` as the compound, how does the “hERG current change (%, negative = inhibition) at 10uM” value read?
A: -0.794%

Q: With `Cc1cc(NS(=O)(=O)c2ccccc2)n(-c2ccccc2)n1` as the compound, how does the “hERG current change (%, negative = inhibition) at 10uM” value read?
A: -1.45%

Q: For `Oc1cccc(/C=N/N(Cc2ccccc2)c2ccccc2)c1`, which “hERG current change (%, negative = inhibition) at 10uM” value is on record?
A: 1.46%

Q: How did the “hERG current change (%, negative = inhibition) at 10uM” value turn out when `CCCC(c1nnnn1C1CCCCC1)N1CCN(C2CCCC2)CC1.Cl` (stereo not shown) was run?
A: -46.4%

Q: `Cc1ccc(CNC(=O)Nc2ccc3c(c2)N(C)C(=O)CS3)cc1` was tested. Which “hERG current change (%, negative = inhibition) at 10uM” value did it give?
A: -9.48%

Q: For `CCOc1ccc(N2C(=O)/C(=C/c3ccccc3)N=C2SC)cc1`, which “hERG current change (%, negative = inhibition) at 10uM” value is on record?
A: 11.3%

Q: `Cc1cccc(Nc2nnc(SCC(=O)c3c(N)n(C4CC4)c(=O)[nH]c3=O)s2)c1` was tested. Which “hERG current change (%, negative = inhibition) at 10uM” value did it give?
A: 16.9%

Q: Which “hERG current change (%, negative = inhibition) at 10uM” value does the source give for `O=C(Nc1ccccc1)c1ccccc1OS(=O)(=O)c1ccccc1` here?
A: 5.99%

Q: For `COc1cc(/C=C(\C#N)c2ccccn2)ccc1OCC(=O)Nc1c(Cl)cccc1Cl.Cl`, which “hERG current change (%, negative = inhibition) at 10uM” value is on record?
A: 9.49%

Q: `CCOc1ccccc1NC(=O)Nc1ccc(CC#N)cc1` was tested. Which “hERG current change (%, negative = inhibition) at 10uM” value did it give?
A: 3.28%

Q: With `COc1cc(-c2ccccc2)[nH]c(=S)n1` as the compound, how does the “hERG current change (%, negative = inhibition) at 10uM” value read?
A: 22.3%

Q: How did the “hERG current change (%, negative = inhibition) at 10uM” value turn out when `CCOc1ccccc1OCC(=O)Nc1cc2c(cc1C(=O)O)OCCCO2` was run?
A: 5.71%

Q: Which “hERG current change (%, negative = inhibition) at 10uM” value does the source give for `Oc1ccccc1/C=N/NC(=S)NC1CC2CC1C1C=CCC21` (stereo not shown) here?
A: 27.3%

Q: For `O=C1CCCC/C1=N\Nc1ccc(C2CCCCC2)cc1`, which “hERG current change (%, negative = inhibition) at 10uM” value is on record?
A: 12.8%

Q: Which “hERG current change (%, negative = inhibition) at 10uM” value does the source give for `CCCc1cnc(N2CCN(C(=S)NC)CC2)nc1` here?
A: -35.6%

Q: How did the “hERG current change (%, negative = inhibition) at 10uM” value turn out when `COc1ccc(C(=O)CSc2nc3ccc([N+](=O)[O-])cc3[nH]2)cc1` was run?
A: 2.18%

Q: For `Cc1ccc(N(CC(=O)NC2CCCCC2C)S(=O)(=O)c2c(C)noc2C)cc1` (stereo not shown), which “hERG current change (%, negative = inhibition) at 10uM” value is on record?
A: 6.65%

Q: How did the “hERG current change (%, negative = inhibition) at 10uM” value turn out when `COc1cccc(CC2(CO)CCCN(Cc3[nH]c4ccc(C)cc4c3C)C2)c1` (stereo not shown) was run?
A: -74.7%

Q: With `Cc1ccccc1-c1nnc(SCC(=O)Nc2ccc(Cl)cc2)n1N` as the compound, how does the “hERG current change (%, negative = inhibition) at 10uM” value read?
A: 10.7%

Q: For `CC(C)(C)C(=O)OC[N+](C)(C)CCOC(=O)C(O)(c1ccccc1)C1CCCC1.[Cl-]` (stereo not shown), which “hERG current change (%, negative = inhibition) at 10uM” value is on record?
A: -9.56%

Q: With `CCOC(=O)Cc1csc(NC(=O)Cn2c(=O)oc3ccccc32)n1` as the compound, how does the “hERG current change (%, negative = inhibition) at 10uM” value read?
A: 6.92%

Q: With `Cc1cc(C(=O)Nc2c(C)n(C)n(-c3ccccc3)c2=O)c2ccccc2n1` as the compound, how does the “hERG current change (%, negative = inhibition) at 10uM” value read?
A: -7.61%

Q: Which “hERG current change (%, negative = inhibition) at 10uM” value does the source give for `CCCCc1nnc(NC(=O)CSc2nc(=O)cc(N)n2-c2cccc(C)c2)s1` here?
A: 6.3%

Q: For `CCOc1ccc(CN2CCN(C/C=C/c3ccc(OC)cc3)CC2CCO)cc1` (stereo not shown), which “hERG current change (%, negative = inhibition) at 10uM” value is on record?
A: -88.7%

Q: With `CC(=O)Nc1cccc2ncccc12` as the compound, how does the “hERG current change (%, negative = inhibition) at 10uM” value read?
A: 4.23%

Q: Which “hERG current change (%, negative = inhibition) at 10uM” value does the source give for `O=C(Nc1cccc(-c2nc3ccccc3o2)c1)c1ccc(N2C(=O)C3C4C=CC(C4)C3C2=O)cc1` (stereo not shown) here?
A: -0.101%

Q: Which “hERG current change (%, negative = inhibition) at 10uM” value does the source give for `Cc1ccc(C(O)CCc2ccc(N)cc2)cc1` (stereo not shown) here?
A: 9.51%

Q: How did the “hERG current change (%, negative = inhibition) at 10uM” value turn out when `O=C(CSc1nc(-c2ccccc2)cc(C(F)(F)F)n1)NCc1ccco1` was run?
A: 6.86%

Q: Which “hERG current change (%, negative = inhibition) at 10uM” value does the source give for `Cc1cc(OCC(=O)N2C[C@H]3C[C@@H](C2)c2cccc(=O)n2C3)c2c(C)cc(=O)oc2c1` here?
A: 10.3%

Q: With `O=C(COc1ccc(C(=O)NCCc2ccccc2)cc1)Nc1ccccc1` as the compound, how does the “hERG current change (%, negative = inhibition) at 10uM” value read?
A: 7.64%

Q: For `Cc1csc(SCC(=O)Nc2sc3c(c2C#N)CCC3)n1`, which “hERG current change (%, negative = inhibition) at 10uM” value is on record?
A: 12.1%

Q: For `CCn1nc(C)c(CN2CCC(n3nccc3NC(=O)Cc3ccccc3)CC2)c1C`, which “hERG current change (%, negative = inhibition) at 10uM” value is on record?
A: 6.57%

Q: With `CCOC(=O)c1nnn(CC(=O)N2N=C(c3ccccc3)CC2c2ccccc2)c1C(=O)OCC` (stereo not shown) as the compound, how does the “hERG current change (%, negative = inhibition) at 10uM” value read?
A: 9.49%

Q: For `O=C(NN=C(c1ccccc1)c1ccccc1)C(CCl)C1CCCCC1` (stereo not shown), which “hERG current change (%, negative = inhibition) at 10uM” value is on record?
A: -2.74%

Q: Which “hERG current change (%, negative = inhibition) at 10uM” value does the source give for `CCC(=O)N/C(=N\OCc1ccc(F)cc1)c1nonc1NC(=O)CC` here?
A: 9.02%

Q: For `O=C(NC(=O)c1cc[nH+]cc1)NC(c1ccccc1)c1ccccc1.[Cl-]`, which “hERG current change (%, negative = inhibition) at 10uM” value is on record?
A: 0.971%

Q: How did the “hERG current change (%, negative = inhibition) at 10uM” value turn out when `CCOC(=O)c1[nH]c2ccccc2c1NC(=O)CC` was run?
A: 3.15%

Q: Which “hERG current change (%, negative = inhibition) at 10uM” value does the source give for `Cc1ccc(NC(=O)CN(c2cc(C)cc(C)c2)S(=O)(=O)c2c(C)noc2C)nc1` here?
A: -40.3%

Q: Which “hERG current change (%, negative = inhibition) at 10uM” value does the source give for `COc1ccccc1Nc1nc(NCCO)nc(N2CCCC2)n1` here?
A: -2.85%

Q: Which “hERG current change (%, negative = inhibition) at 10uM” value does the source give for `COc1ccc(S(=O)(=O)NNC(=O)C23CC4CC(CC(C4)C2)C3)cc1` here?
A: -2.12%

Q: Which “hERG current change (%, negative = inhibition) at 10uM” value does the source give for `Fc1ccccc1NC(=S)N(CCN1CCCCC1)Cc1ccco1` here?
A: -51.2%

Q: For `COCCn1nnnc1C(c1ccc(Cl)cc1)N1CCSCC1.Cl` (stereo not shown), which “hERG current change (%, negative = inhibition) at 10uM” value is on record?
A: -51.9%

Q: For `COCc1cccc(N2C(=O)CC(C3C=C(C)C4C(=O)N(c5cccc(COC)c5)C(=O)C4C3)C2=O)c1` (stereo not shown), which “hERG current change (%, negative = inhibition) at 10uM” value is on record?
A: -12.7%

Q: Which “hERG current change (%, negative = inhibition) at 10uM” value does the source give for `O=C(CCSc1nnc(-c2ccncc2)o1)Nc1ccc(F)cc1` here?
A: -16.4%

Q: With `CCOC(=O)N1CCN(C(=O)COc2ccc3ccccc3c2Br)CC1` as the compound, how does the “hERG current change (%, negative = inhibition) at 10uM” value read?
A: -27.9%

Q: Which “hERG current change (%, negative = inhibition) at 10uM” value does the source give for `CCCN(C(=O)COC(=O)CCOc1ccc(C)cc1)c1c(N)n(Cc2ccccc2)c(=O)[nH]c1=O` here?
A: -19.2%

Q: How did the “hERG current change (%, negative = inhibition) at 10uM” value turn out when `C=C1CC2C3CC[C@@]4(OCOC45COCO5)[C@@]3(C)C(O)CC2[C@@]2(C)CCC(=O)C=C12` (stereo partly shown) was run?
A: 12.3%

Q: With `COC(=O)c1ccccc1NC(=O)N1c2ccccc2Sc2ccccc21` as the compound, how does the “hERG current change (%, negative = inhibition) at 10uM” value read?
A: 1.39%

Q: `CN1OC[C@@H]2COc3ccc4ccccc4c3[C@@H]21` was tested. Which “hERG current change (%, negative = inhibition) at 10uM” value did it give?
A: 18%

Q: With `CCOc1ccc(CNS(=O)(=O)c2c(C)nc3scc(C)n3c2=O)cc1OC` as the compound, how does the “hERG current change (%, negative = inhibition) at 10uM” value read?
A: 8.99%

Q: For `COCCNC(=O)Cn1cc(/C=C(\C#N)C(=O)NC2CCCC2)c2ccccc21`, which “hERG current change (%, negative = inhibition) at 10uM” value is on record?
A: 14.4%

Q: `Cc1nn(-c2ccccc2)c2[nH]c(=O)c(CNCCN3CCOCC3)cc12` was tested. Which “hERG current change (%, negative = inhibition) at 10uM” value did it give?
A: -11.4%
